Results reported in the supplement of paper PMC3334620.
Over roughly 33,000 sequences, “E-score (-0.5 to 0.5)” has its median near -0.016; the highest 2% begin near 0.32. Some of the results follow.

biological target: T1, Stp1 (UniProt B3LFK1); assay: PBM E-score (8-mer binding enrichment) (E-score (-0.5 to 0.5)); higher = stronger / more preferred TF binding; most listed sequences are background and not binding sites; conditions: protein concentration: 200 nM; construct: GST-full length
T1 sequence: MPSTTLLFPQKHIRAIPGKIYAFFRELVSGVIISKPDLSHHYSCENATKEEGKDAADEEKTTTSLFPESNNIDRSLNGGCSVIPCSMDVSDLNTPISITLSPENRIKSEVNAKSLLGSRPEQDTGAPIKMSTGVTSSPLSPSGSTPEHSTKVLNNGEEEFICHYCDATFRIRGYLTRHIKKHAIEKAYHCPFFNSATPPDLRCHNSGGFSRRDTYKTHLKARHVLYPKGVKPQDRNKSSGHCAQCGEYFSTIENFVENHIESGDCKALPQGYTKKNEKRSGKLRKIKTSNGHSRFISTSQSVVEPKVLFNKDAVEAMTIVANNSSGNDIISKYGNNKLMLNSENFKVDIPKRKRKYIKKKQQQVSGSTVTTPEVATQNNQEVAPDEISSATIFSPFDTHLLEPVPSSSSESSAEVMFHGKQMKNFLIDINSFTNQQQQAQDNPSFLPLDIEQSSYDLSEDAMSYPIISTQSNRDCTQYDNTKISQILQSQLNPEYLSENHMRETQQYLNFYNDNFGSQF
Summary of the method: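 Universal all-10-mer Agilent arrays, fresh or stripped once, were converted to double-stranded form by primer extension. GST-tagged yeast transcription factors from PURExpress in vitro transcription/translation, full-length or DNA-binding domain only, were applied at about 100-200 nM and detected with fluorescent anti-GST. After masliner normalisation, the Universal PBM Analysis Suite scored each ungapped eight-base word together with its reverse complement by E-score.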

Sequence | PBM E-score
AGAGGCGC | 0.327
CGTTATAG | 0.0844
ATGTGGTG | 0.061
GCGGCTCA | 0.461
AAACCGAT | 0.00051
CAGCGGCC | -0.111
AACCCCCA | -0.277
TGAGAAAA | 0.116
GCACTGCC | 0.295
CATTTCTC | -0.0331
GAGGTTCA | -0.0614
ATAGGCAG | 0.0667
CGTACTTC | 0.112
ACATATCG | -0.0648
TACCCGAA | -0.0694
CGCACCTA | -0.0809
ACAACAGA | -0.0979
GCGCGTCC | -0.0448
CCTAGCCG | 0.209
CTAAAAAC | 0.00514
AGCCCAGA | -0.184
ATCACCCC | -0.153
AACTTATC | -0.101
GAGACTGC | -0.0601
AAGGGGCG | -0.0739

Sequence | PBM E-score
AAGACCAA | 0.0637
GCGCTTCA | 0.0695
CGTGCTTC | 0.21
CGTTAAAG | 0.0537
CCACGTAG | -0.231
AAACTATG | 0.092
ACGTTAAA | 0.0978
CCCTGCGC | -0.0515
ACTGATTA | -0.00806
TCGTGTCA | -0.0426
CAGCGCCA | 0.0346
CAATTATC | 0.0472
GTAGCGAA | -0.00393
CGCGTAAG | 0.0543
CGACACCA | -0.139
ATTCGCCG | 0.328
CAGGTTAG | -0.0241
CTTCGTTA | -0.136
ATATCTAG | 0.131
CCGCTCCC | -0.129
AGACTCAC | -0.325
ATAAGTAT | 0.0253
ATTGAGGG | -0.18
AGGGTTTA | -0.0642
TCTTTAAA | 0.214

Sequence | PBM E-score
CGTCTAGA | 0.0196
ACTTTATG | -0.0114
GCGTACGA | 0.116
TAATAGGA | 0.00841
CGTGCTCA | 0.072
CCACGACG | 0.0824
GATGCCAA | 0.147
CGTCAGGC | -0.183
GAGGCCGA | -0.172
CTCCCACC | -0.172
CCTATCGA | -0.0175
CGGCCGCC | 0.269
AATTGTGC | 0.269
AGCCGTAG | 0.392
ATTGGGGG | -0.336
ACATGTTC | -0.148
GCCAGTAA | -0.0247
ACAATAGA | 0.119
AAGTGCGG | 0.0699
CCATTGTC | -0.0473
ACTTCTAG | -0.0314
AAACATAG | -0.163
ATTCCAAA | 0.0517
CGCACTCA | 0.0725
CGATAGAG | -0.106

Sequence | PBM E-score
TGACCACA | -0.109
GGCCGGCA | 0.2
CTACAACC | 0.172
GGCGCAGA | 0.271
ACATATGG | 0.0758
ACGGTAGC | -0.0803
CTCGCTTC | -0.114
GGCCGGAA | -0.106
TAGCATAA | 0.0006
CACAATAG | 0.111
CAAACGTG | -0.0243
AACGTCGA | 0.1
TAGGACTA | 0.0602
AAATCTTG | -0.00868
CAGCAGTA | -0.0846
GCATTACC | -0.124
CAGCTCTC | -0.325
AGACGGAC | -0.055
GACCGTAA | -0.0965
AAGACGGG | 0.0493
AATTTGGC | -0.0372
ACGAGCGC | -0.0541
ATGTGATA | -0.0523
AATTACGT | 0.00761
ACTGGAAG | -0.2

Sequence | PBM E-score
GCCTAAGC | -0.0799
GAACGCCC | -0.00871
ATCCCCCA | -0.372
AAGGCCAC | 0.101
AGGAGCGG | -0.029
CCACCAGC | -0.211
GCCGGGAC | -0.284
GACGCCGA | 0.304
GAAACTGC | -0.0102
TAATCATA | 0.0515
CGAGTTCC | -0.0641
CCCCATTC | -0.135
ATGCCACA | 0.243
GGAGGTAC | -0.209
GAGATATC | 0.0576
ACTTATGC | -0.039
CAAAACTC | -0.0208
GGCGAACC | 0.163
CGCCGTAG | 0.465
TCCCGCGA | -0.312
TGATGACA | -0.128
GCCCGCTA | -0.112
CGAATTAC | -0.0649
ACAATACA | 0.146
AGGGTGCG | -0.125

Sequence | PBM E-score
CGGGTCCA | -0.289
CCGCGCGG | 0.469
CACAAATA | 0.237
GCGTCGCA | -0.0271
TTAACAAA | 0.175
ACCAATAC | -0.092
AGAGAGCA | -0.213
CGATACAA | 0.0278
ACGGGATA | 0.0598
AGTACTTA | -0.0805
ATAAGGTC | -0.0818
CCAGGGCA | -0.0496
CCCAGGAG | -0.182
GACATATC | 0.0516
AGCGAACT | 0.00922
CCTCGAGC | 0.134
CAGAACAA | 0.175
AGCCAACG | 0.109
GCTCCGCA | 0.209
ATGCATTC | 0.0215
CGTGCACA | -0.017
AGTTCGAC | 0.0693
AATGACCA | -0.167
TCGGAAAA | 0.0755
GTGCTAAA | 0.119

Sequence | PBM E-score
ACCACTAC | -0.0664
CATAGCCG | 0.171
CCCTCGAA | -0.293
GCAACTTA | 0.0426
AACAGCAT | 0.0669
CCATACCG | 0.0658
ATAGGGCA | 0.222
CACTTTCA | -0.0764
AGTTAACA | 0.0843
GTAAACAC | 0.0667
TATGAATA | 0.136
AGTACCTA | -0.0253
GCATGACC | -0.233
GACCGTCA | -0.187
AAGTGTCC | 0.0872
AGAATACT | 0.142
AACTAGTA | 0.00173
AGCCTTGG | -0.138
CAACCAGA | 0.0587
CCCAGAAG | -0.081
CAAGTAAC | 0.0497
CGAGGCTA | 0.0726
